From the supplement of paper PMC10441789
The other results are listed elsewhere or left out. Antibody binding of pooled human sera (four to six donors per pool; dilution not stated) to peptides of the Trypanosoma cruzi antigen TSSA on microarrays. Quantile-normalised fluorescence in arbitrary units, mean of duplicate arrays; higher = more binding. No active / inactive call. The uninfected pools are read here as the healthy donors of the same country. The strongest signals lie near the top of the scale (about 60,000).

Tests used:
Test in all cases: antibody binding signal (normalised fluorescence) (arbitrary fluorescence units); higher = stronger serum antibody binding to peptide
[1] = tested on: pooled sera of chronic Chagas disease patients, Argentina
Method: (§1)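 Microarray of 15-residue peptides over residues 30-55 of Trypanosoma cruzi TSSAII, each with 1 to 10 substitutions at naturally variable positions, probed with one serum pool per country.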

[2] = tested on: pooled sera of chronic Chagas disease patients, Bolivia
Method: as §1

[3] = tested on: pooled sera of chronic Chagas disease patients, Brazil
Method: as §1

[4] = tested on: pooled sera of chronic Chagas disease patients, Colombia
Method: as §1

[5] = tested on: pooled sera of chronic Chagas disease patients, Mexico
Method: as §1

[6] = tested on: pooled sera of chronic Chagas disease patients, USA
Method: as §1

[7] = tested on: pooled sera of uninfected people, Argentina
Method: as §1

[8] = tested on: pooled sera of uninfected people, Bolivia
Method: as §1

[9] = tested on: pooled sera of uninfected people, Brazil
Method: as §1

[10] = tested on: pooled sera of uninfected people, Colombia
Method: as §1

[11] = tested on: pooled sera of uninfected people, Mexico
Method: as §1

[12] = tested on: pooled sera of uninfected people, USA
Method: as §1

| Sequence | antibody binding signal [1] | antibody binding signal [2] | antibody binding signal [3] | antibody binding signal [4] | antibody binding signal [5] | antibody binding signal [6] | antibody binding signal [7] | antibody binding signal [8] | antibody binding signal [9] | antibody binding signal [10] | antibody binding signal [11] | antibody binding signal [12] |
| --- | --- | --- | --- | --- | --- | --- | --- | --- | --- | --- | --- | --- |
| SSTPPSGTDNKTATG | 31300 | 41600 | 49100 | 1040 | 13400 | 21300 | 1040 | 674 | 1540 | 201 | 231 | 388 |
| PPSGKDNKTAAGGAP | 869 | 287 | 1680 | 3550 | 5670 | 2850 | 550 | 403 | 154 | 279 | 103 | 310 |
| KDKKPATGEAPSPPG | 39900 | 18900 | 39700 | 149 | 149 | 28000 | 759 | 288 | 130 | 153 | 93.5 | 111 |
| TENKPAAGEAPSPPG | 41700 | 1750 | 33700 | 324 | 409 | 14800 | 133 | 340 | 211 | 75.3 | 91.8 | 131 |
| SGKEKKAAAGEAPSQ | 7690 | 2560 | 6250 | 4610 | 9350 | 11800 | 199 | 159 | 92.8 | 107 | 67.3 | 92.4 |
| KTATGGAPSQSGASS | 495 | 225 | 620 | 266 | 785 | 207 | 484 | 186 | 141 | 110 | 348 | 249 |
| TDNKPATGEAPSQPG | 40600 | 41400 | 46300 | 391 | 224 | 43100 | 580 | 553 | 507 | 147 | 336 | 124 |
| GKEKKPATGETPSQS | 29700 | 6640 | 23100 | 4720 | 6610 | 19400 | 202 | 190 | 99 | 110 | 639 | 305 |
| GTEKKAAAGETPSPP | 564 | 236 | 1090 | 591 | 784 | 2700 | 145 | 692 | 159 | 176 | 168 | 386 |
| ENKAAAGGTPSQPGA | 276 | 1160 | 1910 | 3990 | 308 | 2340 | 377 | 204 | 2040 | 454 | 946 | 193 |
| SSTPPSGKDKKPATG | 28500 | 1840 | 7430 | 246 | 48800 | 1220 | 290 | 468 | 120 | 156 | 111 | 104 |
| KDNKPATGGTPSPPG | 426 | 317 | 530 | 375 | 368 | 420 | 349 | 507 | 228 | 255 | 174 | 120 |
| PPSGKDNKTATGGTP | 637 | 364 | 1960 | 2240 | 4500 | 2910 | 371 | 462 | 142 | 224 | 104 | 263 |
| PPSGKENKPAAGGAP | 19000 | 6380 | 6270 | 2290 | 4480 | 10700 | 5300 | 2580 | 164 | 499 | 218 | 682 |
| EKKAATGEAPSPSGA | 20400 | 20300 | 25300 | 286 | 394 | 23700 | 749 | 1240 | 160 | 512 | 264 | 1360 |
| KKPATGGAPSPPGAS | 508 | 699 | 466 | 756 | 395 | 929 | 422 | 600 | 108 | 175 | 89.6 | 442 |
| ENKTATGGTPSQSGA | 491 | 2140 | 535 | 922 | 439 | 1050 | 504 | 185 | 563 | 163 | 883 | 183 |
| TPPSGKENKTATGEA | 8050 | 10000 | 5760 | 388 | 1340 | 2300 | 735 | 870 | 365 | 627 | 198 | 136 |
| TISTPPSGKDNKAAA | 7310 | 2450 | 3280 | 593 | 16400 | 2220 | 1180 | 469 | 445 | 200 | 134 | 454 |
| GKEKKTAAGGAPSQP | 526 | 235 | 299 | 3270 | 1170 | 1370 | 149 | 119 | 128 | 152 | 114 | 108 |
| NKTATGGTPSPPGAS | 444 | 863 | 2220 | 426 | 392 | 732 | 759 | 1120 | 467 | 849 | 224 | 1620 |
| PPSGTDNKTAAGEAP | 17700 | 26800 | 43900 | 490 | 667 | 6140 | 395 | 518 | 793 | 386 | 163 | 277 |
| ISTPPSGTDKKAAAG | 31800 | 13600 | 33700 | 7660 | 29200 | 4770 | 674 | 128 | 148 | 154 | 2070 | 272 |
| SGTENKPAAGEAPSP | 42600 | 18200 | 33300 | 526 | 1020 | 18500 | 792 | 1140 | 203 | 145 | 190 | 122 |
| KKPAAGGTPSPPGAS | 181 | 218 | 215 | 1570 | 136 | 402 | 265 | 136 | 628 | 150 | 79.6 | 417 |

| Sequence | antibody binding signal [1] | antibody binding signal [2] | antibody binding signal [3] | antibody binding signal [4] | antibody binding signal [5] | antibody binding signal [6] | antibody binding signal [7] | antibody binding signal [8] | antibody binding signal [9] | antibody binding signal [10] | antibody binding signal [11] | antibody binding signal [12] |
| --- | --- | --- | --- | --- | --- | --- | --- | --- | --- | --- | --- | --- |
| TPPSGKEKKPATGGA | 16200 | 333 | 795 | 1060 | 16100 | 752 | 492 | 699 | 137 | 256 | 118 | 389 |
| KENKTATGEAPSQSG | 15300 | 10200 | 22000 | 619 | 709 | 22000 | 249 | 141 | 168 | 156 | 157 | 110 |
| GKDKKAATGGAPSPP | 526 | 262 | 294 | 992 | 1020 | 1130 | 187 | 154 | 99.9 | 180 | 94.7 | 110 |
| GTDNKTATGETPSQP | 1150 | 4280 | 37800 | 364 | 219 | 7720 | 126 | 585 | 1550 | 129 | 159 | 178 |
| KDNKPAAGETPSPSG | 418 | 278 | 11900 | 360 | 199 | 3640 | 296 | 495 | 171 | 281 | 470 | 1940 |
| KENKPAAGGTPSPPG | 212 | 340 | 776 | 1080 | 443 | 365 | 206 | 390 | 507 | 270 | 125 | 163 |
| GKDNKTAAGGTPSQS | 632 | 204 | 202 | 2950 | 562 | 1560 | 203 | 107 | 211 | 148 | 309 | 129 |
| PPSGTDNKTAAGETP | 19700 | 27500 | 42500 | 478 | 841 | 4050 | 382 | 641 | 1060 | 275 | 184 | 253 |
| GKDNKTATGGTPSPP | 1810 | 342 | 831 | 4030 | 3140 | 2740 | 191 | 150 | 128 | 258 | 92.8 | 120 |
| TEKKTAAGETPSQSG | 739 | 574 | 1040 | 467 | 444 | 1540 | 129 | 255 | 288 | 848 | 411 | 225 |
| GTDNKTAAGETPSPP | 156 | 306 | 28300 | 196 | 333 | 1110 | 178 | 668 | 1260 | 165 | 211 | 535 |
| GTENKAATGEAPSQS | 33500 | 41400 | 38900 | 4590 | 5120 | 29600 | 237 | 366 | 147 | 169 | 99.5 | 83.3 |
| TPPSGKEKKTATGET | 7440 | 363 | 1570 | 1580 | 6940 | 1250 | 356 | 691 | 119 | 384 | 198 | 146 |
| GTDKKTATGGTPSQS | 458 | 566 | 431 | 3450 | 575 | 1380 | 366 | 192 | 249 | 477 | 295 | 109 |
| PPSGKDNKPATGEAP | 47500 | 48200 | 47800 | 387 | 16500 | 45300 | 1100 | 1120 | 404 | 302 | 358 | 287 |
| SSTPPSGTEKKPATG | 42100 | 9580 | 45200 | 745 | 34500 | 9010 | 1390 | 1300 | 395 | 219 | 244 | 732 |
| KENKPATGGTPSPSG | 373 | 305 | 1150 | 174 | 604 | 329 | 292 | 316 | 158 | 167 | 113 | 181 |
| STPPSGTEKKAATGG | 37900 | 16000 | 29600 | 6960 | 11400 | 5020 | 947 | 503 | 204 | 588 | 219 | 322 |
| DNKPATGGTPSPPGA | 377 | 1030 | 1230 | 216 | 391 | 293 | 243 | 465 | 609 | 373 | 222 | 134 |
| KDKKTATGETPSQPG | 414 | 683 | 19600 | 288 | 192 | 4860 | 129 | 149 | 169 | 135 | 149 | 123 |
| KENKTAAGGTPSQPG | 472 | 222 | 448 | 2990 | 216 | 1380 | 451 | 90 | 224 | 138 | 799 | 143 |
| TSSTPPSGKEKKPAA | 18800 | 349 | 458 | 236 | 35400 | 367 | 742 | 292 | 101 | 292 | 75.1 | 269 |
| GKDNKPAAGEAPSQP | 7020 | 19900 | 42900 | 1240 | 1810 | 16600 | 286 | 894 | 152 | 227 | 391 | 102 |
| TDKKPAAGEAPSPPG | 805 | 253 | 18700 | 342 | 189 | 14400 | 107 | 319 | 201 | 77.6 | 122 | 76.8 |
| TDNKPATGETPSPSG | 36200 | 31100 | 35900 | 348 | 242 | 26500 | 103 | 474 | 322 | 161 | 1860 | 2460 |
